# In the BET-seq Pho4 binding data (Le et al. 2018):
# The list shows a part of the results. The energies were worked out here from pooled read counts, against the library average; single values are noisy.
# Target: T1, Pho4 (S. cerevisiae) (UniProt P07270)
# T1 sequence: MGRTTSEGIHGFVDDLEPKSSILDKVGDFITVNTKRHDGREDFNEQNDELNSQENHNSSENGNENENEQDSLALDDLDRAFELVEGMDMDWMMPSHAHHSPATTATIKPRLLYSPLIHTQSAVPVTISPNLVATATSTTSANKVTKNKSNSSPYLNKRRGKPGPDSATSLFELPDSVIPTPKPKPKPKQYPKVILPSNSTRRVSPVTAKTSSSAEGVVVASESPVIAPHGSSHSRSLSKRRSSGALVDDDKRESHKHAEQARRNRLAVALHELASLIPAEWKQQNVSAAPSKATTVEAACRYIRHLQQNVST
# Test: relative binding free energy (BET-seq); higher = weaker binding
# Conditions: reference: library average
row,Sequence,relative binding free energy [kJ/mol]
1,GCTGGCACGTGTACGG,-0.251
2,TATCGCACGTGTTTTG,-0.126
3,TTTGTCACGTGTGTGT,0.711
4,CTTGACACGTGTAGTT,0.167
5,AGTACCACGTGAGTTT,1.21
6,GCGAGCACGTGGGGCT,-0.753
7,GTGGTCACGTGTCCGT,0.962
8,AAGGTCACGTGATGTC,1.34
9,TTAACCACGTGATGTT,0.92
10,GCTGTCACGTGATGTT,1.46
11,GTAAACACGTGATGGA,1.46
12,TTAGGCACGTGCTGTT,-0.669
13,TTAAACACGTGGGTCG,-0.418
14,TAATTCACGTGTGTTG,0.879
15,TTATTCACGTGAGGCA,1.63
16,GTGGGCACGTGCCGTA,-0.251
17,TGGATCACGTGCGGAT,0.167
18,GTGTGCACGTGAGTAA,0.335
19,GGGTTCACGTGCATAG,1.09
20,ATTGACACGTGATATT,0.628
21,AGCTTCACGTGTGTAT,1.21
22,AAAATCACGTGTGTAT,1.13
23,CTTTGCACGTGTGTGA,-0.167
24,GTTGGCACGTGAAGCT,1.26
25,GTAGCCACGTGTTTTT,0.251
26,TGATTCACGTGAAGGG,1.59

row,Sequence,relative binding free energy [kJ/mol]
1,GTGGTCACGTGCTTGA,0.377
2,GTACACACGTGATGGG,0.879
3,TTCTTCACGTGGGTTT,0.837
4,GTTAGCACGTGTAAAT,0.962
5,TTTAGCACGTGACAGG,0.167
6,CGATACACGTGTGGAG,0.586
7,TGACTCACGTGAGTGG,1
8,ATTCGCACGTGATATT,0
9,TTGATCACGTGTTTCT,0.795
10,ACTGTCACGTGTAGTT,0.335
11,GGAAACACGTGGTGTT,-0.335
12,AGTATCACGTGTAGCT,0.669
13,CGTTGCACGTGACTTG,1.21
14,TGTTGCACGTGGACAG,-0.251
15,ATTTGCACGTGGAGGG,0.167
16,GTGAACACGTGCGGGG,-0.209
17,TGCAACACGTGTATTG,0.0418
18,TTGTTCACGTGCATTA,1.21
19,ACTAGCACGTGTGGGG,-0.418
20,TAAGGCACGTGGGAAA,-0.418
21,TAGGACACGTGGGATT,-0.753
22,CTGGTCACGTGCGTGG,0.335
23,TTTTTCACGTGGCCGT,1.13
24,ATTGGCACGTGTGCGG,-0.669
25,GTCAGCACGTGTGGTA,0
26,GTTCTCACGTGTTAAT,0.962

row,Sequence,relative binding free energy [kJ/mol]
1,GGGAGCACGTGACGGG,0.293
2,CCAGGCACGTGCGGGG,-0.293
3,AAGTTCACGTGCTGGG,1.38
4,CGGAGCACGTGCGGTT,-0.251
5,AATGGCACGTGGGAAA,-0.0837
6,GCCTGCACGTGGTTAG,0.628
7,TGGGGCACGTGTCAGC,-0.293
8,GTAGACACGTGTGTGT,0.251
9,AGGCTCACGTGAAGGT,1.51
10,GGGAGCACGTGATATG,0.126
11,AAAAACACGTGTTGGG,0.586
12,TGTGACACGTGGAATA,0
13,GGTGCCACGTGATGAG,0.293
14,CTTTGCACGTGAGATT,1.34
15,TGTCGCACGTGTAAAT,0
16,CGGGCCACGTGGGCGT,-1.09
17,GTTATCACGTGGGAGG,0.753
18,GGGGGCACGTGTGGAT,0.0418
19,ATCTTCACGTGACGTT,1.55
20,ATTCTCACGTGAAGTG,1
21,TAGTGCACGTGTCGAG,-0.335
22,TGAGGCACGTGGACAT,-0.544
23,GCGTGCACGTGGTCTG,-0.837
24,AGGGACACGTGGGACG,-0.753
25,TTGAGCACGTGGTCTT,-0.669
26,GGTAGCACGTGTAATT,0.711

row,Sequence,relative binding free energy [kJ/mol]
1,GCCGGCACGTGGGAGT,-0.628
2,GTGATCACGTGCCTGG,0.293
3,GGAGCCACGTGGAGGG,0
4,TGTCGCACGTGTATTT,-0.126
5,AATGGCACGTGTTGCT,-0.46
6,CTATGCACGTGTAGTT,0.418
7,GTTCCCACGTGGTTTT,-0.167
8,AGTAGCACGTGAGTGC,0.711
9,AGCTTCACGTGTGGTT,1.42
10,TGTAACACGTGTTATT,-0.586
11,GGATCCACGTGGTTTG,-0.0418
12,TTGGTCACGTGGAACT,0.46
13,GACGGCACGTGGGGGC,-0.92
14,TTGTCCACGTGGGGTG,-0.544
15,GGTATCACGTGTTACT,0.92
16,GCGGGCACGTGGAGGA,-0.418
17,CCGTGCACGTGTGGGA,-0.126
18,TCAAACACGTGTTGTT,0.544
19,TTATGCACGTGTTGTC,0.126
20,GAGAACACGTGTAGGG,0
21,TGGGGCACGTGGAGTT,0.0418
22,GGAAGCACGTGGAGAT,-0.377
23,GGTATCACGTGGAGGA,0.711
24,GGGTGCACGTGGGTGG,-0.544
25,GACGGCACGTGAGGGT,0.92
26,GGTGTCACGTGACAGG,0.418

row,Sequence,relative binding free energy [kJ/mol]
1,TGCTCCACGTGAGTGT,0.711
2,TGTTGCACGTGGGTAC,-0.46
3,TAAGGCACGTGGGGAT,-0.669
4,TCTTTCACGTGTGAAT,1.42
5,AGGCACACGTGGGGTT,-0.293
6,TATGGCACGTGTAGGG,-0.335
7,CTGCTCACGTGTTGTG,0.586
8,TTAAACACGTGTCGAG,0.711
9,GTTAGCACGTGTCTTA,0.628
10,TGTATCACGTGTTATT,0.418
11,AGGAGCACGTGTGATG,-0.46
12,TTATGCACGTGCGGGC,-0.209
13,TGGAACACGTGTATTA,0.335
14,TGTATCACGTGACATT,1.3
15,GGTATCACGTGTTTCG,1.59
16,AGTTTCACGTGAGGGA,1.55
17,TGGCTCACGTGAAGTA,1.42
18,CCTTTCACGTGGGGTT,0.209
19,GGTTCCACGTGTATAG,0.879
20,GCAGACACGTGTGTTG,0.251
21,GGATACACGTGGGTAA,-0.209
22,TGTTTCACGTGACGGT,1.55
23,CTTTGCACGTGGGCAT,-1.13
24,GTATGCACGTGGGAGT,0.0418
25,CTTGACACGTGTTAGT,0.0837
26,ATTTACACGTGGGTAG,-0.293

row,Sequence,relative binding free energy [kJ/mol]
1,GATTTCACGTGTTTTA,1.09
2,TGTGTCACGTGGTTTG,-0.167
3,TGTGGCACGTGTACTT,-0.46
4,TTGAGCACGTGAAGGA,1
5,AATGGCACGTGGCGAG,-0.628
6,AAGTTCACGTGGGAGG,1
7,TGTCTCACGTGAGATG,1.51
8,GTCCGCACGTGGGGGG,-0.795
9,CGAGTCACGTGAGAGG,0.711
10,TTATGCACGTGATGTT,0.167
11,AGATTCACGTGCTTTT,0.711
12,ATGGGCACGTGCAGGC,-0.711
13,TACAGCACGTGCGTGG,-0.167
14,GACGGCACGTGTTATT,0.251
15,CGCGTCACGTGAGGGT,0.293
16,CTCTGCACGTGTTAGG,-0.126
17,TATTTCACGTGGGTTC,1
18,GCTTTCACGTGTGTGC,1.34
19,TGCATCACGTGTGCGG,0.0418
20,GGGCACACGTGTATTG,0.293
21,CTGGACACGTGGGGTT,-0.418
22,ATTTGCACGTGGTATA,-0.335
23,CTAAGCACGTGTGTCG,-0.0418
24,AAGTTCACGTGGAGTA,1.21
25,GCAGGCACGTGGTTTT,-0.586
26,AAATGCACGTGAAGTG,1.17

row,Sequence,relative binding free energy [kJ/mol]
1,TTGTTCACGTGAGTAG,1.84
2,ATTAACACGTGGTTGT,-0.753
3,TGTCGCACGTGTGCTG,-0.251
4,GTAGTCACGTGAGGAG,1.13
5,TCGGTCACGTGGAAAT,1.51
6,TGAAACACGTGAGTGA,1.3
7,TGAAGCACGTGTGCGT,-0.586
8,GTTGTCACGTGGTATT,0.502
9,TGTTTCACGTGCTAAT,0.46
10,ATGGCCACGTGTTTGT,-0.377
11,TGTAGCACGTGTGTGG,-0.293
12,ATAGGCACGTGCGGTG,-0.669
13,GGCGTCACGTGTGCGT,-0.126
14,TGTAACACGTGGGGTC,-0.544
15,ATTGGCACGTGAGTAC,0.586
16,TTTTTCACGTGTATGG,1.46
17,ATTAACACGTGCTGGG,0.669
18,GTAATCACGTGACGGG,1.05
19,TTTGCCACGTGGATTA,0.377
20,TGAATCACGTGGTGGA,0.628
21,GTTAACACGTGTGGCA,-0.251
22,ACTTTCACGTGAGTTT,1.3
23,GGTGTCACGTGGGTTG,0.0837
24,GTCCGCACGTGTGAGG,-0.167
25,TTTCACACGTGGATTG,-0.209
26,GTGTTCACGTGGGACA,0.126

row,Sequence,relative binding free energy [kJ/mol]
1,TATCACACGTGGTTTG,-0.586
2,AGAAACACGTGGGTGT,-0.502
3,ATGGCCACGTGGTTAT,0
4,GGTTGCACGTGGTGTG,0.0418
5,GGCATCACGTGATGGT,1.21
6,ATGTACACGTGATGAG,0.544
7,TGATTCACGTGTAGAT,1
8,TAGGTCACGTGCTTTA,0.0418
9,ATGTCCACGTGGGGAT,0.0837
10,TATCTCACGTGATGAT,1.26
11,ATGCACACGTGATGGG,0.126
12,AGGGACACGTGGGCTG,-0.544
13,CTCGGCACGTGTGTTT,-0.502
14,AGTTTCACGTGCGGTA,0.837
15,CACAGCACGTGGGTGG,-0.586
16,ATCGGCACGTGTAGTA,-0.46
17,CAATGCACGTGGGGGA,-0.586
18,TCGTGCACGTGTTAAT,-0.0837
19,ATTGGCACGTGGGCCA,-0.628
20,GGGTGCACGTGTGAAA,0.502
21,AGTGCCACGTGGTTGT,-0.837
22,AAGGGCACGTGCGGGA,-0.92
23,GTGTGCACGTGAGTCT,0.586
24,CTCGTCACGTGTGGAT,0.753
25,GGTTCCACGTGATATT,1
26,AGTCGCACGTGGGTGC,-1.17

row,Sequence,relative binding free energy [kJ/mol]
1,CTGGTCACGTGTTGTG,0.293
2,TGGCTCACGTGGCTTT,0.795
3,AGGGTCACGTGATTGC,1.09
4,TGTGGCACGTGTTTAA,-0.0418
5,ACGATCACGTGTTGGT,0.669
6,ATTATCACGTGGCGTG,0.0418
7,TGAGACACGTGTTATG,0.167
8,GGTGCCACGTGGTGAG,-0.377
9,GGTCACACGTGAAGGG,1.38
10,GGAAGCACGTGGTTGC,0.335
11,TTGGTCACGTGAAGTC,1.17
12,TGCGGCACGTGCGTTG,-0.544
13,GCGGGCACGTGAGGCT,0.293
14,GCGGTCACGTGGCTTG,0.126
15,GAGGTCACGTGATCGG,1.09
16,GTATACACGTGTTGGG,0.167
17,AAAGGCACGTGATACG,0.167
18,ATCGGCACGTGTGTTT,0
19,GGGGACACGTGCCGGC,0.251
20,ACAAGCACGTGATGGT,0.335
21,GGTCACACGTGTGTCG,0.753
22,ATAGTCACGTGTAATT,0.293
